# Test results published in PubChem BioAssay AID504845 (National Center for Advancing Translational Sciences (NCATS), 2011).
# Screen size: about 390,000 compounds; about 150 (0.038%) were called active. The shares of active, inactive and inconclusive entries below differ from those in the screen. Calls follow the shape of the dose curve; as a rule, active = well fitted inhibition curve with a large enough effect; inconclusive = small, poorly fitted or top-dose-only effect; inactive = no such curve, though single readings can be large or run the other way. Potencies beside an inconclusive call are fits to weak or partial responses and may not hold up.
# Target: Regulator of G-protein signaling 4 (Homo sapiens) (UniProt P49798)
# Test: Inhibitors of Regulator of G Protein Signaling (RGS) 4: qHTS; also: nearly all actives have a fitted effect of over 75% in size
# Settings: Transcreener GDP fluorescence polarization, RGS4-accelerated GTP hydrolysis; series mostly up to 114 µM; activity change, negative = inhibition: at the top concentration
# In short: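 MLSMR compounds (23 nl, pin-transferred) preincubated 10 min at room temperature with a 500nM (2x) first reagent, then RGS4 at 900nM (2x) plus Transcreener GDP mix added; fluorescence polarization (620/688 nm) read before and after 90 min at 30 °C.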
# % is scaled to controls: 0 for no effect and ±100 for the full control effect; potency is read from the fitted curve at half-maximal effect; tags tell the direction and shape of the fitted curve.
# Sequence of UniProt P49798 (P49798 whole entry, looked up): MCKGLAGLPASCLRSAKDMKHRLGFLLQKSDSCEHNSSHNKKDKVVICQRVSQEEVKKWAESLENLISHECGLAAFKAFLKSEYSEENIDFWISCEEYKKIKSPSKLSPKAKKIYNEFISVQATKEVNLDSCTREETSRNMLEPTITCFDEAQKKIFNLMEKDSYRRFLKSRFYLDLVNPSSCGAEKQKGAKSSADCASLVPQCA
SMILES,Potency,"activity change, negative = inhibition"
Cc1ccc(O)c(NC(=O)COc2cc(C)ccc2C)c1,"inconclusive: 79.4 µM [inhibitor, single point]",–
CCC(=O)Nc1c(C#N)c2nc3ccccc3nc2n1-c1ccc(C)cc1,–,inactive: 17.4% [at 11.4 µM]
O=c1[nH]c2cc3c(cc2cc1CN(Cc1cccnc1)Cc1nnnn1Cc1ccco1)OCCO3,–,inactive: -31.5%
Cc1ccc2c(CC(=O)N3CCN(c4cccc(Cl)c4)CC3)coc2c1C,"inconclusive: 70.8 µM [inhibitor, partial curve, poor fit]",–
CCc1nc(SCC(=O)c2ccc(C)c(C)c2)n[nH]1,"inconclusive: 56.2 µM [inhibitor, partial curve, poor fit]",–
CCOC(=O)c1c(NC(=O)CSc2cn(CCNC(=O)c3ccc(OC)c(OC)c3)c3ccccc23)sc2c1CCC2,"inconclusive: 56.2 µM [inhibitor, partial curve, poor fit]",–
CCCSc1nc(C)c2cc(C)cc(C)c2n1,"inconclusive: 79.4 µM [inhibitor, single point]",–
Cc1ccc2[nH]c(=O)c(CN(Cc3cccs3)S(=O)(=O)c3ccc4c(c3)OCCO4)cc2c1,"inconclusive: 89.1 µM [inhibitor, single point]",–
S=c1nc(-c2cccc(Cl)c2)[nH][nH]1,–,inactive: -52.7%
O=C(O)CCC(=O)c1ccc(-c2ccccc2)cc1,–,inactive: 3.74%
O=C(NNC(=O)c1ccccc1Cl)c1ccc2c(c1)OCCO2,–,inactive: -23.2%
COC(=O)[C@@H]1[C@@H](C#N)C2(c3ccccc3-c3ccccc32)N(c2ccc(Cl)cc2)N1C#N,"inconclusive: 50.1 µM [inhibitor, partial curve, poor fit]",–
COc1cccc(C(C)NC(=O)c2c(F)cccc2Cl)c1 (configuration not stated),–,inactive: 10.3%
O=C1NN(c2ccccc2)C(=O)/C1=C\c1ccc(-c2cc([N+](=O)[O-])ccc2O)o1,"inconclusive: 56.2 µM [inhibitor, partial curve, poor fit]",–
COc1ccc(NCC(=O)N/N=C/c2cc([N+](=O)[O-])ccc2N2CCCC2)cc1,"inconclusive: 28.2 µM [inhibitor, full curve, poor fit]",–
COC1OC2COC(c3ccccc3)OC2C(O)C1O (configuration not stated),"inconclusive: 1.34 µM [inhibitor, full curve, poor fit]",–
Cc1ccc(-c2ccc(C(=O)NCc3ccc(Cl)cc3)o2)c2ccccc12,"inconclusive: 50.1 µM [inhibitor, partial curve, poor fit]",–
CSc1ccc(C2C(C#N)=C(N)Oc3c2ccc(=O)c2c(C)oc(C)c32)cc1 (configuration not stated),"inconclusive: 56.2 µM [inhibitor, partial curve, poor fit]",–
CCOC(=O)N1CCN(C2CCCN(C(=O)c3ccccc3C(F)(F)F)C2)CC1 (configuration not stated),"inconclusive: 89.1 µM [inhibitor, single point]",–
CN(C)/C=C1/Nc2ccccc2C1=O,"inconclusive: 50.1 µM [inhibitor, partial curve, poor fit]",–
COc1cccc(OC)c1OC(=O)/C=C/c1ccc(C)o1,–,inactive: -12.5%

SMILES,Potency,"activity change, negative = inhibition"
Cc1cc([N+](=O)[O-])nn1Cc1ccc(C(=O)N/N=C/c2ccc(O)cc2O)cc1,–,inactive: -45%
CSc1ccc(C(=S)N2CCN(Cc3ccccc3)CC2)cc1,"inconclusive: 79.4 µM [inhibitor, single point]",–
COc1ccc(C2C(C#N)=C(N)SC(N)=C2C#N)cc1OC,"inconclusive: 50.1 µM [inhibitor, partial curve, poor fit]",–
Cc1cc(/C=C2/NC(=O)NC2=O)c(C)n1-c1ccc(C#N)cc1,"inconclusive: 35.5 µM [inhibitor, full curve, poor fit]",–
C/C(=N/NC(=O)CNC(=O)c1cccnc1)c1ccc(Cl)cc1,"inconclusive: 89.1 µM [inhibitor, single point]",–
CCC(C)NC(=O)c1cn(CC)c2ccc(S(=O)(=O)N3CCc4ccccc4C3)cc2c1=O (configuration not stated),–,inactive: 1.25%
c1coc(-c2nnc3sc(C4CCCCC4)nn23)c1,"inconclusive: 79.4 µM [inhibitor, partial curve, poor fit]",–
CC(C)(C)c1nnc(NC(=O)c2ccc3c(c2)OCO3)s1,"inconclusive: 100 µM [inhibitor, partial curve, poor fit]",–
O=C(NC(=S)N1CCOCC1)c1cn(-c2ccccc2)nc1-c1ccc(F)cc1,"inconclusive: 100 µM [inhibitor, partial curve, poor fit]",–
COCCCNC(=S)N1CCN(S(=O)(=O)c2ccc(OC)cc2)CC1,"inconclusive: 50.1 µM [inhibitor, partial curve, poor fit]",–
CCCCCCC(=O)N(O)C1CC(=O)N(c2ccc(C)cc2)C1=O (configuration not stated),"inconclusive: 70.8 µM [inhibitor, partial curve, poor fit]",–
Cc1cc(C(=O)CCl)c(C)n1CCc1ccccc1,"inconclusive: 79.4 µM [inhibitor, partial curve, poor fit]",–
COc1ccc(C(=O)Oc2ccc(C(=S)N3CCOCC3)cc2)cc1,"inconclusive: 44.7 µM [inhibitor, partial curve, poor fit]",–
COc1cccc(/C=C2\SC(=S)N(CC3CCCO3)C2=O)c1 (configuration not stated),"inconclusive: 89.1 µM [inhibitor, single point]",–
O=C(NCC1CCCO1)C(c1cccs1)N(C(=O)c1ccc(-c2ccccc2)[nH]1)C1CCCC1 (configuration not stated),–,inactive: -3.55%
CCN(CC)c1cc(Cl)c2nonc2c1N,"inconclusive: 39.8 µM [inhibitor, partial curve, poor fit]",–
COc1cc(/C=N/N2C(=O)CSC2=S)cc(Br)c1O,"inconclusive: 50.1 µM [inhibitor, partial curve, poor fit]",–
COc1ccc(C(=O)OCC(=O)NCc2ccco2)cc1S(=O)(=O)N1CCN(c2cccc(Cl)c2)CC1,"inconclusive: 79.4 µM [inhibitor, partial curve, poor fit]",–
CCOC(=O)C1=C(C)N=c2s/c(=C\c3cccc(OCC(=O)O)c3)c(=O)n2C1c1ccccc1OC (configuration not stated),–,inactive: -34%
COCCn1nnnc1C(c1ccc(OC)c(OC)c1)N1CCN(c2nc3ccccc3s2)CC1 (configuration not stated),"inconclusive: 70.8 µM [inhibitor, partial curve, poor fit]",–
COc1ccc(C(=O)NC(=S)NC2CCCCC2)cc1,"inconclusive: 44.7 µM [inhibitor, partial curve, poor fit]",–

SMILES,Potency,"activity change, negative = inhibition"
CCS(=O)(=O)Nc1c(C(=O)O)[nH]c2ccccc12,"inconclusive: 89.1 µM [inhibitor, single point]",–
S=c1[nH]ccc2ccccc12,"inconclusive: 89.1 µM [inhibitor, partial curve, poor fit]",–
COc1ccc(N2CCN(C(=O)CN3C(=O)NC4(CCCc5ccccc54)C3=O)CC2)cc1 (configuration not stated),–,inactive: 12.5%
CCNc1cc2c(cc1O)CCC1C2CCC2(C)C(O)CCC12 (configuration not stated),"inconclusive: 56.2 µM [inhibitor, partial curve, poor fit]",–
CC(C)(C)NC(=O)C(OC(=O)c1ccco1)c1ccccc1F (configuration not stated),"inconclusive: 79.4 µM [inhibitor, single point]",–
O=C1C(Cl)=C(N2CCCCC2)C(=O)C(Cl)=C1c1cnc(N2CCCCC2)s1,"inconclusive: 79.4 µM [inhibitor, partial curve, poor fit]",–
CC(=O)c1cccc(NC(=O)Cn2cc(C(=O)c3cccc(Cl)c3)c(=O)c3ccc(C)nc32)c1,"inconclusive: 39.8 µM [inhibitor, full curve, poor fit]",–
Cc1ccc(C(C(=O)NC2CCCCC2)N(CCC(C)C)C(=O)CNC(=O)c2ccco2)o1 (configuration not stated),–,inactive: -18.9%
Nc1ccc2nc(-c3ccccc3)c(-c3ccccc3)nc2c1,"inconclusive: 89.1 µM [inhibitor, single point]",–
Cc1cc(Nc2ccc(O)cc2)ccc1N,"inconclusive: 11.2 µM [inhibitor, full curve, poor fit]",–
COc1cc(NC(=O)C23CC4CC(C2)CC(n2cnc([N+](=O)[O-])n2)(C4)C3)cc(OC)c1,"inconclusive: 79.4 µM [inhibitor, partial curve, poor fit]",–
O=C(Nc1ccn(Cc2ccccc2F)n1)c1ccc(COc2ccccc2Cl)cc1,–,inactive: -24.9%
O=C1c2ccccc2C(=O)N1CCCc1nc(-c2ccccn2)no1,"inconclusive: 100 µM [inhibitor, single point]",–
COc1cc(/C=C2\SC(=O)N(c3cccc(Cl)c3)C2=O)cc([N+](=O)[O-])c1O,"inconclusive: 44.7 µM [inhibitor, partial curve, poor fit]",–
C=CCNc1nc(-c2sc(NC(=O)CC)nc2C)cs1,"inconclusive: 44.7 µM [inhibitor, partial curve, poor fit]",–
COc1ccc(C2CC(=O)N3CN(Cc4ccco4)CSC3=C2C#N)cc1 (configuration not stated),"inconclusive: 56.2 µM [inhibitor, partial curve, poor fit]",–
O=C(CSc1ccc(-c2nc3ccccc3[nH]2)cn1)N1CCN(C(=O)c2ccco2)CC1,"inconclusive: 79.4 µM [inhibitor, partial curve, poor fit]",–
CCOC(=O)CSC1=C(C#N)C(c2ccccc2C)C2=C(CCCC2=O)N1 (configuration not stated),"inconclusive: 79.4 µM [inhibitor, partial curve, poor fit]",–
COc1ccc(-n2c(=O)c3c(c4cc(OC)ccc4n3C)n(CC(=O)N3CCCC3)c2=O)cc1,–,inactive: 27.7%
COc1ccc(/C=C2\C(=O)NC(=S)N2C(=O)c2ccc(C)cc2)cc1,"inconclusive: 17.8 µM [inhibitor, full curve, poor fit]",–
